Assay results: the supplement of paper PMC10986608
Some of the results follow. Many values rest on one well or one pass, so single values are uncertain.

tested on: Candida albicans DPL-15; experiment: growth (OD600) after compound treatment (apparently relative to screen median) (relative growth (fraction; screen median 1.02)); DPL-15 is a caspofungin-resistant clinical isolate; higher = more fungal growth (less antifungal activity); conditions: 25 µM; RPMI 1640; 48 h; 30 °C

SMILES | growth
COC(=O)[C@H]1[C@@H](c2ccccc2)[C@]2(c3ccc(OC)cc3)Oc3cc(OC)cc(OC)c3[C@@]1(O)C2=O | 1.13
CCOc1cc2c(cc1OCC)C[NH2+]CC2 | 1.26
CC(C)(C)NS(=O)(=O)OCC(Cl)(Cl)Cl | 1.11
C[C@]12CC[C@H](OS(=O)(=O)Nc3cccc(Cl)c3)C[C@@H]1CC[C@@H]1[C@@H]2CC[C@]2(C)C(=O)CC[C@@H]12 | 1.14
CCCCCCCCC(=O)NCc1ccc(O)c(OC)c1 | 0.779
COc1ccc([C@@]23Oc4cc(OC)cc(OC)c4[C@@]24NC(C2CC2)=N[C@@]4(O)[C@H](C(=O)N(C)OC)[C@H]3c2ccccc2)cc1 | 1.02
O=C1CN=C(c2ccccc2)c2ccccc2N1 | 1.02
COC(=O)[C@@H]1[C@@H](O)[C@@]2(O)c3c(OC)cc(OC)cc3O[C@@]2(c2ccc(Br)cc2)[C@H]1c1ccccc1 | 0.892
COC(=O)[C@@H]1[C@@H](c2ccccc2)C2(c3ccc(OC)cc3)C(=O)C1(O)c1ccccc1N2C (stereo partly drawn) | 0.961
CONC(=O)[C@H]1[C@@H](O)[C@@]2(O)c3c(OC)cc(OC)cc3O[C@@]2(c2ccc(OC)cc2)[C@@H]1c1ccccc1 | 0.958
CCOc1ccccc1-c1nc2c(c(=O)[nH]1)[C@@H](c1ccccc1)[C@]1(c3ccc(OC)cc3)Oc3cc(OC)cc(OC)c3[C@]21O | 1.04
COc1ccc([C@@]23Oc4cc(OC)cc(OC)c4[C@]2(O)c2nc(-c4cnccn4)[nH]c(=O)c2[C@H]3c2ccccc2)cc1 | 1.95
COc1ccc(-c2nc3c(c(=O)[nH]2)[C@@H](c2ccccc2)[C@]2(c4ccc(OC)cc4)Oc4cc(OC)cc(OC)c4[C@]32O)cc1 | 0.915
COC(=O)[C@@H]1[C@@H](c2ccccc2)[C@]2(c3ccc(OC)cc3)Oc3cc(OC)cc(OC)c3[C@@]1(O)[C@@H]2O | 1.1
COc1ccc([C@]23Oc4cc(OC)cc(OC)c4[C@]24NC(C)=N[C@]4(O)[C@@H](C(=O)N(C)OC)[C@@H]3c2ccccc2)cc1 | 1.09
COc1ccc([C@@]23Oc4cc(OC)cc(OC)c4[C@]2(O)c2nc[nH]c(=O)c2[C@H]3c2ccccc2)cc1 | 1.03
COC(=O)[C@@H]1[C@@H](c2ccccc2)[C@]2(c3ccc(OC)cc3)Oc3cc(OC)cc(OC)c3[C@@]1(O)[C@H]2O | 0.975
CO[C@H](c1ccccc1Br)[C@H](C)/C=C/[C@]1(C(=O)O)[C@@H]2c3ccccc3N(C(=O)OC(C)(C)C)[C@@H]21 | 1.11
COC(=O)[C@H]1C(=O)[C@@]2(O)c3c(OC)cc(OC)cc3O[C@@]2(c2ccc(OC)cc2)[C@@H]1c1ccccc1 | 0.888
CCCc1c(Cl)c2c(OC)c3c(c(O)c2c(=O)n1C)-c1c(c(OC)c2oc(=O)c4c(O)ccc(O)c4c2c1O)CC3 | 0.877

SMILES | growth
CONC(=O)[C@@H]1[C@@H](O)[C@@]2(O)c3c(OC)cc(OC)cc3O[C@@]2(c2ccc(Br)cc2)[C@H]1c1ccccc1 | 0.898
COc1ccc([C@@]23Oc4cc(OC)cc(OC)c4[C@@]24NC(C)=NC4=C(C=O)[C@H]3c2ccccc2)cc1 | 1.09
COc1ccc([C@@]23Oc4cc(OC)cc(OC)c4[C@]2(O)c2nc4n(c(=O)c2[C@H]3c2ccccc2)CCC4)cc1 | 1.05
COC(=O)[C@H]1[C@@H](c2ccccc2)[C@]2(c3ccc(Br)cc3)Nc3cc(OC)cc(OC)c3[C@@]1(O)[C@H]2O | 0.958
COc1ccc([C@@]23Oc4cc(OC)cc(OC)c4[C@]2(O)c2nc(C(C)C)[nH]c(=O)c2[C@H]3c2ccccc2)cc1 | 1.11
c1c2c(cc3c1OCO3)C[NH2+]CC2 | 1.16
CCOC(=O)COc1nc(-c2ccccc2)nc2c1[C@@H](c1ccccc1)[C@]1(c3ccc(OC)cc3)Oc3cc(OC)cc(OC)c3[C@]21O | 1.08
CO[C@@H]1[C@H](O)CC[C@]2(O)CN(CCc3c[nH]c4ccccc34)[C@@H](CC=C(C)C)[C@](C)(O)[C@@H]12 | 1.09
COC(=O)[C@@H]1[C@@H](c2ccccc2)[C@]2(c3ccc(Br)cc3)C(=O)[C@@]1(O)c1c(OC)cc(OC)cc1N2C | 0.847
COc1ccc([C@@]23Oc4cc(OC)cc(OC)c4[C@@]24NC(C)=N[C@@]4(O)[C@H](C(=O)N(C)OC)[C@H]3c2ccccc2)cc1 | 0.931
COC(=O)[C@@H]1[C@@H](c2ccccc2)[C@]2(c3ccc(OC)cc3)Oc3cc(OC)cc(OC)c3[C@@]23N=C(C2CC2)N[C@@]13O | 1.09
COC(=O)[C@H]1[C@H](c2ccccc2)[C@]2(c3ccc(OC)cc3)Oc3cc(OC)cc(OC)c3[C@@]1(O)C2O (stereo partly drawn) | 1.28
COC(=O)[C@H]1[C@@H](O)[C@@]2(O)c3c(OC)cc(OC)cc3O[C@@]2(c2ccc(Br)cc2)[C@@H]1c1ccccc1 | 1.14
COC(=O)C1=C(O)c2ccoc2[C@@]2(C)CCC[C@H]1C2 | 1.02
COC(=O)[C@H]1[C@H](c2ccccc2)[C@@]2(c3ccc(Br)cc3)Oc3cc(OC)cc(OC)c3[C@]1(O)[C@H]2O | 1.11
COC(=O)[C@@H]1[C@@H](c2ccccc2)[C@@]2(c3ccc(OC)cc3)C(=O)[C@]1(O)c1ccccc1N2C | 1.07
COc1ccc([C@@]23Oc4cc(OC)cc(OC)c4[C@]2(O)c2nc(-c4ccc(Cl)cc4)[nH]c(=O)c2[C@H]3c2ccccc2)cc1 | 1.01
COC(=O)[C@H]1[C@@H](O)[C@@]2(O)c3c(OC)cc(O)cc3O[C@@]2(c2ccc(OC)cc2)[C@@H]1c1ccccc1 | 1.07
COc1cc(OC)c2c(c1)O[C@@]1(c3ccc(Br)cc3)[C@H](c3ccccc3)C[C@@H](O)[C@@]21O | 0.709
COc1ccc([C@]23Oc4cc(OC)cc(OC)c4[C@@]2(O)c2nc4n(c(=O)c2[C@@H]3c2ccccc2)CCC4)cc1 | 1.04

SMILES | growth
c1c2c(cc3c1OCCO3)CNCC2 | 0.969
COc1ccc([C@]23Oc4cc(OC)cc(OC)c4[C@](O)([C@H](c4ccccc4)[C@H]2C(=O)NCCCCNC(=O)c2ccccc2)[C@H]3O)cc1 | 0.978
COC(=O)C1c2c(n(C)c3ccccc23)[C@H]2[C@@H](C)[C@H](OC)c3ccccc3[C@@H]12 (stereo partly drawn) | 1.14
N#Cc1ccc(C(=O)COC(=O)c2ccccc2N)cc1 | 1.1
COc1ccc([C@@]23Oc4cc(OC)cc(OC)c4[C@]2(O)c2nc(-c4ccc(C(F)(F)F)cc4)[nH]c(=O)c2[C@H]3c2ccccc2)cc1 | 1.13
COc1ccc([C@@]23Oc4cc(OC)cc(OC)c4[C@]2(O)c2nc(-c4ccc(F)cc4)[nH]c(=O)c2[C@H]3c2ccccc2)cc1 | 1.11
C=C[C@H]1C[N@]2CC[C@H]1C[C@H]2[C@H](OS(N)(=O)=O)c1ccnc2ccc(OC)cc12 | 1.12
CCOP(=O)(OCC)O/C(C=C(C)C)=C1/CCC2OC2(CC=C(C)C)C1=O (stereo not drawn) | 1.04
COCc1nc2c(c(=O)[nH]1)[C@@H](c1ccccc1)[C@]1(c3ccc(OC)cc3)Oc3cc(OC)cc(OC)c3[C@]21O | 1.05
COc1ccc(-c2nc3c(c(=O)[nH]2)[C@H](c2ccccc2)[C@@]2(c4ccc(OC)cc4)Oc4cc(OC)cc(OC)c4[C@@]32O)cc1 | 0.831
COC(=O)[C@H]1[C@@H](c2ccccc2)C2(c3ccc(OC)cc3)Oc3cc(OC)cc(OC)c3[C@@]1(O)C2=O | 0.923
CCCCC1=N[C@@]2(O)[C@H](C(=O)OC)[C@@H](c3ccccc3)[C@]3(c4ccc(OC)cc4)Oc4cc(OC)cc(OC)c4[C@]23N1 | 0.994
COCC1=N[C@@]2(O)[C@H](C(=O)OC)[C@@H](c3ccccc3)[C@]3(c4ccc(OC)cc4)Oc4cc(OC)cc(OC)c4[C@]23N1 | 0.759
COc1ccc(OC)c2c1CCNC2 | 1.22
COc1ccc([C@]23Oc4cc(OC)cc(OC)c4[C@@]2(O)[C@@H](O)C[C@@H]3c2ccccc2)cc1 | 1.04
COC(=O)[C@@H]1[C@@H](c2ccccc2)[C@]2(c3ccc(OC)cc3)Oc3cc(OC)cc(OC)c3[C@@]23N=C(C)N[C@@]13O | 0.952
COC(=O)C1C(=O)c2ccoc2C12CCCCC2 (stereo not drawn) | 1.13
COC(=O)[C@@H]1[C@@H](c2ccccc2)[C@@]2(c3ccc(Br)cc3)C(=O)[C@]1(O)c1c(OC)cc(OC)cc1N2C | 0.979
